The record followed here is PubChem BioAssay AID1347073 (National Center for Advancing Translational Sciences (NCATS), 2019).

Molecules are shown by their SMILES. Out of some 45,000 compounds screened, about 200 (0.44%) were called active. Another 7% or so got no clear call; they are omitted. The call rests on the fitted dose curve; in most records, active means well fitted activation curve with a large enough effect; inconclusive means small, poorly fitted or top-dose-only effect; inactive means no such curve, though single readings can be large or run the other way. Some of the results follow.

A short description of the test: qHTS of TDP-43 Inhibitors: NCGC Sytravon Library Screen. Further: 0% is about no effect; nearly all actives have a fitted effect of over 55% in size. As to conditions: yeast TDP-43 toxicity rescue, BacTiter-Glo growth, 24 h; series mostly up to 46.1 µM; growth rescue (activation): at the top concentration. The gist of the method: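 TDP-43-expressing yeast, pregrown in raffinose, seeded at OD600 0.02 in galactose medium with compound for 24 hr at 30 deg C. Growth read by BacTiter-Glo luminescence, so rescue of toxicity appears as activation.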
A general note: Quantitative high-throughput screening tests each substance at several concentrations.
As to `CCC1(CC)Nc2ccccc2C(=O)N1c1ccc(NC(C)=O)cc1`, the “growth rescue (activation)” value is inactive: 8.01%. The value for `Cc1ccc(-c2csc(NC(=O)c3ccccc3Cl)c2C(=O)O)cc1` was inactive: -24.3%; that for `Cc1ccc2c(c1)C(c1ccc(F)cc1)N(C(=O)c1ccccc1Br)CC(=O)N2` (configuration not stated) was inactive: 7.17%; that for `O=C(COC(=O)/C=C/c1ccccc1[N+](=O)[O-])Nc1ccc2[nH]c(=O)[nH]c2c1` was inactive: 8.85%. The value for `Cc1ccc(-c2nnc(SCC(=O)N(C)C)nc2-c2ccc(C)cc2)cc1` was inactive: 18%. The value for `CCOCCCNS(=O)(=O)c1ccc(NC(=O)CN2C(=O)c3ccccc3C2=O)cc1` was inactive: -18.3%; that for `CCc1nc2ccc(C(=O)N3CCN(C)CC3)cn2c1N(C)CCCc1ccccc1` was inactive: 11.3%.

`CN(C)c1ccc(C(=S)N2CCN(C(=S)Nc3ccccc3)CC2)cc1`: the “growth rescue (activation)” value was inactive: -3.89%. The value for `O=C(CNCc1ccccc1Cl)Nc1ccccc1N1CCCCC1` was inactive: -3.73%.

Take `Cc1ccc(C)c(OCCn2cc(C(=O)O)c3ccccc32)c1`: the “growth rescue (activation)” value is inactive: 16.8%. With `COc1ccc(CNc2nc3nc(C)c(Cl)c(C)n3n2)cc1` the figure was inactive: 37.6%; with `Cc1ccc(C(=O)N/N=C\c2cccc(OC(=O)c3cccc(F)c3)c2)cn1`, inactive: 11.5%. With `CCOC(=O)C1(Cc2ccccc2)CCCN(Cc2ccc(OCC)c(CO)c2)C1` (configuration not stated) the figure was inactive: -4.49%. The value for `COc1cc(/C=C2\SC(=N)N(c3ccc(F)cc3)C2=O)ccc1O` was inactive: 0.6%; that for `Cc1cc(=O)cc(C)n1-c1ccc(Cl)c(Cl)c1` was inactive: 8.77%.

`Cc1ccc(NC(=O)N2CCc3cc(S(=O)(=O)N4CCC(C)CC4)ccc32)cc1C`: the “growth rescue (activation)” value was inactive: -0.233%. Take `CC1(C(=O)Nc2cccc3ccccc23)CCN1C(=O)C1(c2ccccc2)CCCC1` (configuration not stated): the “growth rescue (activation)” value is inactive: 3.2%.

Regarding `N=c1c2c(ncn1Cc1ccco1)Oc1ccc3ccccc3c1C2c1ccccc1` (configuration not stated), the “growth rescue (activation)” value was inactive: 20.4%.

For the compound `CSc1nsc(SCC(=O)Nc2ccc(NC(C)=O)cc2)n1`, the “growth rescue (activation)” value was inactive: -2.8%. The value for `FC(F)(F)c1cccc(N2CCN(CC3CC=CCC3)CC2)c1` (configuration not stated) was inactive: 7.2%; that for `Cc1ccc(C(=O)NC(C(=O)NC2CCCC2)c2ccccc2)cc1` (configuration not stated) was inactive: 0.784%. With `O=C(Nc1cccc(NC(=O)c2cccs2)c1)c1cccnc1` the figure was inactive: 12.6%. As for `CC(NS(=O)(=O)c1ccc(Br)cc1)C(=O)Nc1nc2ccccc2[nH]1` (configuration not stated), the “growth rescue (activation)” value was inactive: -0.0658%. The value for `CCCCN(CC)S(=O)(=O)c1c(C)[nH]c(=O)[nH]c1=O` was inactive: 6.91%; that for `O=C(CO/N=C/c1ccccc1OC(F)F)NC1CCCCC1` was inactive: 12.7%; that for `Cc1cccc(N2CC(C)Cn3c2nc2c3c(=O)n(CC(=O)OCc3ccccc3)c(=O)n2C)c1` (configuration not stated) was inactive: -0.85%. With `O=S(=O)(Nc1nc2ccc(Cl)cc2s1)c1cccs1` the figure was inactive: 8.02%; with `Cc1sc2ncn(CC(=O)Nc3c(F)cccc3F)c(=O)c2c1S(=O)(=O)N1CCC(C)CC1`, inactive: 3.49%; with `CCCCC(=O)NC(c1ccc(Cl)cc1)c1ccc2cccnc2c1O` (configuration not stated), inactive: 28.8%. With `Cc1ccc(C(=O)C[n+]2cc(Br)cc(Br)c2)cc1` the figure was inactive: 18.8%; with `Cc1cc(C)c(S(=O)(=O)/N=C2/C=C(Sc3ncn[nH]3)C(=O)c3ccccc32)cc1C`, inactive: -93.9%; with `Cc1cc2c(=O)n(C)c(SCC(=O)NCC3CCCO3)nc2s1` (configuration not stated), inactive: 7.55%. On to `Cn1cc(/C=C/c2nc3ccccc3c(=O)n2-c2cccc([N+](=O)[O-])c2)c2ccccc21`, for which the “growth rescue (activation)” value is inactive: -7.7%. With `OC[C@@H]1CN(Cc2ccco2)C[C@H](n2cnc3c(N4CCOCC4)ncnc32)O1` the figure was inactive: 19.7%; with `CC(=O)Nc1ccc(S(=O)(=O)N2CC3(C)CC2CC(C)(C)C3)cc1` (configuration not stated), inactive: 10.2%; with `CCc1cc(=O)oc2c3c(cc(OCC(=O)N[C@H](C(=O)O)[C@H](C)CC)c12)OC(C)(C)CC3`, inactive: -4.32%.

As to `Cc1ccc(CN2CCNC(=O)C2CC(=O)N(C)C2CCCCC2)cc1` (configuration not stated), the “growth rescue (activation)” value is inactive: -7.94%. The value for `O=C(NCC(c1cccnc1)N1CCN(c2ccc(F)cc2)CC1)c1ccccc1` (configuration not stated) was inactive: -6.09%; that for `Cc1[nH]c(=O)c(C#N)c(C)c1CCC(=O)NCc1ccc(Cl)cc1` was inactive: 4.66%. With `O=C(c1ccc([N+](=O)[O-])s1)N1CCN(c2ccc(C(F)(F)F)cn2)CC1` the figure was inactive: -1.36%; with `CC1=Nc2ccccc2/C1=C/c1c(N)n2c(S(=O)(=O)CC(C)C)nsc2nc1=O`, inactive: 15.3%; with `O=C(CSc1cccc[n+]1[O-])Nc1ccc2c(c1)OCCO2`, inactive: -6.8%. The value for `CC(C)OCCCN1CC(=O)N2C(c3ccccc3)c3[nH]c4ccccc4c3C[C@H]2C1=O` (some centres not stated) was inactive: 18.3%. As for `CN(CC(=O)NC1CCCCCC1)S(=O)(=O)c1cnc[nH]1`, the “growth rescue (activation)” value is inactive: -3.93%.

In the case of `Cc1nn(C(C)C)c(C)c1[C@@H]1C[C@H]2CN(Cc3cccc(Cl)c3)C(=O)[C@]23CCCN13`, the “growth rescue (activation)” value was inactive: 29.5%.

For `COc1cccc(C(=O)OCCNC(=O)c2cccnc2)c1`, the “growth rescue (activation)” value is inactive: 11.9%. With `O=C1CC(C(=O)Nc2cccc(F)c2)n2c(nc3ccccc32)N1` (configuration not stated) the figure was inactive: -18%; with `COc1ccccc1C(=O)N/C(=N/c1nc(C)cc(C)n1)Nc1ccccc1`, inactive: 21.7%; with `COc1ccc(NS(=O)(=O)c2cc(NC(=O)c3cnccn3)ccc2OC)cc1Br`, inactive: -14%. `O=C(Nc1ccc(N2C(=O)C3CCCCC3C2=O)cc1Cl)c1cccs1` (configuration not stated): the “growth rescue (activation)” value is inactive: 10.2%. With `CC(=O)Nc1ccc2c(c1)NC(=O)CC2` the figure was inactive: -15.1%; with `O=C(N/N=C/c1ccncc1)c1cc(-c2ccc(Br)s2)[nH]n1`, inactive: -18.5%; with `CCC1CSC(Nc2ccc(C(=O)/C=C/c3ccc(Br)cc3)cc2)=N1` (configuration not stated), inactive: 22.9%. The value for `Cc1cc(NC(=O)CCC(=O)N(CC(=O)NC2CCCC2)c2ccc(Cl)cc2)no1` was inactive: 8.25%; that for `O=C(NNC(=O)c1cnccn1)c1ccc(Cl)cc1` was inactive: 1.41%. In the case of `CCCCNC(=O)N(O)C1N(/N=C/c2cccs2)C(=S)SC1(C)C` (configuration not stated), the “growth rescue (activation)” value was inactive: 2.11%.

With `COc1cccc(C(=O)C2CCCN(Cc3cn(CC(N)=O)c4ccccc34)C2)c1` (configuration not stated), the “growth rescue (activation)” value is inactive: -5.81%. With `C/C(=N\NC(=O)c1ccc(CSc2nncn2C)cc1)c1cccs1` the figure was inactive: 6.92%. With `O=C(Nc1ccc(Br)cn1)c1cccc(C(=O)Nc2ccc(Br)cn2)c1` the figure was inactive: 18%. The value for `O=C(O)/C=C/C(=O)N1CCN(S(=O)(=O)c2cc(C(F)(F)F)ccc2Cl)CC1` was inactive: 3.82%.

Take `O=S(=O)(Nc1ccccc1N1CCOCC1)c1cccs1`: the “growth rescue (activation)” value is inactive: 35.1%.

Turning to `CCCCN(C)CCC(=O)Nc1ccc(F)c(F)c1`, the “growth rescue (activation)” value was inactive: 20%. The value for `CCOC(=O)c1c(C)[nH]sc1=S` was inactive: 22.6%. With `Cc1cccc(NC(=O)/C=C/c2ccc3c(c2)OCO3)n1` the figure was inactive: 4.22%; with `Cc1cccc(NC(=S)NC2CCN(Cc3ccccc3)CC2)c1C`, inactive: -14.9%; with `COc1ccc(CCc2nnc(CCC(=O)N(C)Cc3ccnc4ccccc34)o2)cc1`, inactive: 3.05%.

As to `CC1=CN2C(=N)/C(=C/c3ccc([N+](=O)[O-])o3)C(=O)N=C2S1`, the “growth rescue (activation)” value was inactive: -93.5%.
